Measurements as given in the supplement of paper PMC11283458.
The list shows a part of the results. Most values come without repeats; read them as rough.

Each compound was assayed on Mef2d microexon dual Nano/Firefly luciferase splicing reporter in Neuro-2a cells (assay: B-score of Firefly/Nano luminescence ratio, V1 Mef2d microexon reporter (B-score (plate-normalised)); higher = more Mef2d microexon inclusion). Conditions: 24 h.
`CCN(CC)C(=O)ON=C(N)c1cc(Br)c(OC)c(Br)c1` (4 µM) gave a B-score of 11.3. For `O=C(Nc1ccc(-n2nc(C(F)(F)F)cc2-c2cccs2)cc1)c1ccccc1` (4 µM), the B-score was 6.63. `O=C1C2C(c3ccccc3)N3CN(C2c2ccccc2)C(c2ccccc2)C1C3c1ccccc1` (stereo not drawn) (4 µM) was tested, and the B-score was 2.7. `O=[N+]([O-])c1ccc(Nc2ccc3c(c2)OCCO3)cc1C(F)(F)F` (4 µM) gave a B-score of 3.67. Work on `COC(OC)c1nc(SCC(=O)Nc2ccc(C(F)(F)F)cc2)ncc1C(=O)O` (4 µM) yielded a B-score of 3.3. `COc1cccc2cc(-c3nc(C4CCC(C(=O)O)CC4)n4ncnc(N)c34)[nH]c12.Cl` (stereo not drawn) [OSI-027 hydrochloride] (0.5 µM) gave a B-score of -4.61. `COc1cc2c(cc1O)CC[C@@H]1[C@@H]2CC[C@]2(C)[C@@H](O)CC[C@@H]12` [2-Methoxyestradiol] (4 µM) showed a B-score of -3.06. Work on `O=C(O)[C@]1(Cc2cccc(Nc3nccs3)n2)CC[C@@H](Oc2cccc(Cl)c2F)CC1` (0.5 µM) yielded a B-score of 7.53. Work on `COc1ccc(C2C3CCCC=C3C(C#N)=C(N)C2(C#N)C#N)c(OC)c1` (stereo not drawn) (4 µM) yielded a B-score of -1.6. Work on `NC(=S)N/N=C/c1ccc(-c2cccc(Cl)c2Cl)o1` (4 µM) yielded a B-score of 8.9. Compound `O=C(Nc1c[nH]nc1-c1nc2ccc(CN3CCOCC3)cc2[nH]1)NC1CC1` (0.5 µM) has a B-score of -2.48. Work on `CCCCOc1ccc(C2CC(=O)C3=C(C2)c2c(ccc4ccccc24)NC3c2ccc(OC)c(OC)c2)cc1` (stereo not drawn) (4 µM) yielded a B-score of 3.73. For `O=C(CC1Sc2ccccc2NC1=O)Nc1ccc(C(F)(F)F)cc1` (stereo not drawn) (4 µM), the B-score was 2.02.
